From PubChem BioAssay AID360 (National Center for Advancing Translational Sciences (NCATS), 2006)
The whole screen tested about 48,000 compounds, of which about 550 (1.1%) were called active. About 4% were inconclusive and are not listed. Rule as the data show it: active = potency below about 15 µM; inconclusive = mostly about 16 µM to 33 µM; inactive = weaker than that. The list shows a part of the results.

The molecules below were run against Lysosomal acid glucosylceramidase (Homo sapiens) (UniProt P04062) (assay: Glucocerebrosidase). Conditions: purified enzyme, resorufin glucoside fluorescence (screen aimed at inhibitors), 20 min.
Method in brief: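 Wild-type enzyme at 0.2 nM final in 50mM citric acid/KH2PO4, 10mM sodium taurocholate, 0.01% tween-20, pH 5.9, with resorufin beta-D-glucopyranoside at 30 uM final. Compounds titrated, 20 min at RT, red fluorescence read; AC50 from titration.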
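Also: the screen sought inhibitors.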
Potency is read from the fitted curve at half-maximal effect.

UniProt P04062, sequence (P04062 whole entry, looked up): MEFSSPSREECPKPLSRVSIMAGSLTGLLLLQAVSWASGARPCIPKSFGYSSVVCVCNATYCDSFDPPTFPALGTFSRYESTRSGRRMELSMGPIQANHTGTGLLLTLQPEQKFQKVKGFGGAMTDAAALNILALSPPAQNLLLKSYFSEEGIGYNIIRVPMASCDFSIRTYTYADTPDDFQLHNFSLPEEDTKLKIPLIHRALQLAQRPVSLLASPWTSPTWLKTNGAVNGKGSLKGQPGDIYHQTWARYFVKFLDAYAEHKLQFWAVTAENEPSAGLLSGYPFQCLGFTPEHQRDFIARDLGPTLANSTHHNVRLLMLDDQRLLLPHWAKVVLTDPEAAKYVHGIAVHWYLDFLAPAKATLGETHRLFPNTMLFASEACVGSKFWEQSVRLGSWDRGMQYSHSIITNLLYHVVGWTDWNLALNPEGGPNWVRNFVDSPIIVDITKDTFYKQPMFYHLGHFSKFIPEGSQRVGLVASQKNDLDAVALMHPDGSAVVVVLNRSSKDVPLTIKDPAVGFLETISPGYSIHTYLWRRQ

Structure (SMILES)	Potency
O=S(=O)(Nc1nc2ccccc2nc1NCCN1CCOCC1)c1cccc(Cl)c1	inactive: > 76.9 µM
O=C(COc1ccc(Cl)cc1)NCc1nnc(SCC(=O)N2CCCc3ccccc32)o1	inactive: > 76.9 µM
CC(NS(=O)(=O)c1ccc(OCC(=O)N2CCOCC2)c(Cl)c1)c1ccccc1 (configuration not stated)	inactive: > 76.9 µM
c1ccc(N=P(c2nc3ccccc3o2)(N2CCOCC2)N2CCOCC2)cc1	inactive: > 76.9 µM
Cc1noc(NS(=O)(=O)c2ccc(NC(=O)CCC3CCCC3)cc2)c1C	active: 15 µM
O=C(Nc1ccc2c(c1)OCO2)Oc1ccccc1	inactive: > 76.9 µM
CCn1c2ccccc2c2cc(C3C(C#N)=C(N)OC4=C3C(=O)CC(C)(C)C4)ccc21 (configuration not stated)	inactive: > 76.9 µM
COc1ccc(CN(Cc2nc3ccccc3c(=O)[nH]2)C(=O)C(C)(C)C)cc1	inactive: > 76.9 µM
CCCCCC(=O)Nc1ccc(N2CCN(CC)CC2)c(Cl)c1	active: 0.696 µM
Cc1cc(C(F)(F)F)nc(NCc2cccnc2)n1	inactive: > 76.9 µM
Cc1cc(C)c(S(=O)(=O)N(C)CC(=O)NC2CCCC2)c(C)c1	inactive: > 76.9 µM
Cc1ccc(-c2noc(CNCCCN(C)C)n2)cc1	inactive: > 76.9 µM
CCCc1cc(=O)[nH]c(SCC(=O)N(Cc2ccccc2)C(C)C)n1	inactive: > 76.9 µM
COCCn1c(C)cc(C(=O)CSc2nncn2-c2ccccc2)c1C	inactive: > 76.9 µM
O=C(Cc1c(F)c(F)c(F)c(F)c1F)OC12CC3CC(C1)C(=O)C(C3)C2	inactive: > 76.9 µM
COC(=O)c1ccc(COc2ccc(-c3nn[nH]n3)cc2)cc1	inactive: > 76.9 µM
COCCNC(=O)NC(=O)COC(=O)Cc1ccc2c(c1)OCCO2	inactive: > 76.9 µM
O=C(c1ccco1)N1CCN(c2nc(C(F)(F)F)nc3c2nnn3Cc2ccccc2)CC1	inactive: > 76.9 µM
CC1=C(C(=O)Nc2ccccc2C)C(c2ccc(C)o2)C2=C(CCCC2=O)N1 (configuration not stated)	inactive: > 76.9 µM
O=C(CNS(=O)(=O)c1ccc(Br)s1)Nc1ccc2c(c1)OCCO2	inactive: > 76.9 µM
CC1(C(=O)O)CC(C)(C(=O)O)CC(C)(C(=O)O)C1 (configuration not stated)	inactive: > 76.9 µM
COc1ccc(S(=O)(=O)N2CCSC2c2ccc(N)cc2)cc1 (configuration not stated)	inactive: > 76.9 µM
Cc1ccc(-c2ccc(=O)n(CCC(=O)NCc3ccccn3)n2)cc1	inactive: > 76.9 µM

Structure (SMILES)	Potency
O=C(NCCCCNC(=O)c1c(F)c(F)c(F)c(F)c1F)c1c(F)c(F)c(F)c(F)c1F	inactive: > 76.9 µM
COc1ccc(CN2C(=O)c3cccnc3C2Nc2cc(Cl)c(OC)cc2OC)cc1 (configuration not stated)	inactive: > 76.9 µM
COc1ccccc1-n1c(SCC(=O)N2CCCCC2)nnc1-c1ccccc1O	inactive: > 76.9 µM
CCCS(=O)(=O)N1CCN(C(=O)c2cccs2)CC1	inactive: > 76.9 µM
CN(Cc1cc2ccccc2[nH]c1=O)S(C)(=O)=O	inactive: > 76.9 µM
CN(C)S(=O)(=O)N1CCN(S(=O)(=O)c2ccccc2)CC1	inactive: > 76.9 µM
COc1ccc(C(=O)N2CCCCC2)cc1S(=O)(=O)Nc1ccccc1	inactive: > 76.9 µM
Cc1cc(=O)c2cc(Cl)ccc2[nH]1	inactive: > 76.9 µM
COc1ccccc1C(O)P(=O)(OC(C)C)c1ccc(N(C)C)cc1 (configuration not stated)	inactive: > 76.9 µM
CC(C)C(=O)N(Cc1ccc2c(c1)OCO2)Cc1ccccn1	inactive: > 76.9 µM
CCSc1nnc(NC(=O)C2CCCCC2)s1	inactive
CCOC(=O)Cn1c(N2CCOCC2)nc2c1c(=O)[nH]c(=O)n2C	inactive: > 76.9 µM
Cc1ccc(-n2c(SCc3nnc4n3CCC4)nnc2-c2ccccc2)cc1	inactive: > 76.9 µM
CCCC(c1nnnn1Cc1ccco1)N1CCN(C2CCCC2)CC1 (configuration not stated)	inactive: > 76.9 µM
CCCCN(CC)S(=O)(=O)c1ccc(C(=O)Nc2nnc(-c3cccs3)o2)cc1	inactive: > 76.9 µM
Nc1n[nH]c(-c2ccc(F)cc2)n1	inactive: > 76.9 µM
CC(NS(=O)(=O)c1ccccc1)C(=O)Nc1nccs1 (configuration not stated)	inactive: > 76.9 µM
Cc1ccc(C(=O)CSc2nnc(-c3ccccc3)n2-c2ccccc2)o1	inactive: > 76.9 µM
Cc1cccc(-n2nnnc2SCC(=O)NCCN2C(=O)CSC2=O)c1	inactive: > 76.9 µM
Cn1c(SCC(=O)NC(C)(C)C)nc(O)cc1=O	inactive: > 76.9 µM
Cc1nc(NC(=O)CCCC(=O)Nc2nc(C)c(C)s2)sc1C	inactive: > 76.9 µM
CCOCCN(C=O)c1cccc(OC)c1	inactive: > 76.9 µM
COCCN1CCn2c(nc3cc(NC(=O)NC4CCCCC4)ccc32)C1	inactive

Structure (SMILES)	Potency
COC(=O)Nc1ccc(S(=O)(=O)N(C)CC(F)(F)C(F)F)cc1	inactive: > 76.9 µM
COC(=O)c1sc(NC(=O)c2csc3c2CCCC3)nc1C	inactive: > 76.9 µM
O=C1CC(Cc2ccccc2)C(=O)N1c1ccc(Cl)cn1 (configuration not stated)	inactive: > 76.9 µM
CN(C)CCCN1C(=O)C(=O)/C(=C(/O)c2ccc3c(c2)OCO3)C1c1ccco1 (configuration not stated)	inactive: > 76.9 µM
Cc1cc(C)nc(N2CCC(C(=O)NC3CCCCCC3)CC2)n1	inactive: > 76.9 µM
CCn1c(NCc2cc(OC)ccc2OC)nc2ccccc21	inactive: > 76.9 µM
CCOCCCNC(=O)c1ccc2c(c1)ncn2C1CCCC1	inactive: > 76.9 µM
CC(C)N(Cc1nc(-c2ccccc2)no1)C(=O)CN(C)S(=O)(=O)c1ccccc1	inactive: > 76.9 µM
Nc1nc(CSc2nc3ccccc3[nH]2)nc(N2CCOCC2)n1	inactive: > 76.9 µM
Cc1cccc(S(=O)(=O)C(C#N)c2nc3ccccc3nc2N2CCOCC2)c1 (configuration not stated)	inactive: > 76.9 µM
Cc1c(Nc2ncnc3c2cnn3-c2ccccc2)c(=O)n(-c2ccccc2)n1C	inactive: > 76.9 µM
O=C1C2=C(c3ccccc31)[N+](=O)[C@@H]1CCCC[C@@H]1N2[O-]	inactive: > 76.9 µM
C=CCn1c(C(C)NC(=O)C(C)(C)C)nc2ccccc21 (configuration not stated)	inactive: > 76.9 µM
O=C(NCc1cccs1)C1CC(=O)N(C2CCCC2)C1 (configuration not stated)	inactive: > 76.9 µM
COc1ccccc1-c1noc(-c2ccccc2C(=O)N2CCOCC2)n1	inactive: > 76.9 µM
O=C1COc2ccc(C(=O)COC(=O)Cn3cnc4ccccc43)cc2N1	inactive: > 76.9 µM
COc1cc(C(=O)NCCC(=O)NCCN2CCCCCC2)cc(OC)c1OC	inactive: > 76.9 µM
O=C(NCc1ccccc1)c1cc(-c2ccco2)on1	inactive: > 76.9 µM
COc1ccc(C(C)N2CC34C=CC(O3)C(C(=O)O)C4C2=O)cc1 (configuration not stated)	inactive: > 76.9 µM
Cc1ccc(NC(=O)c2cc(-c3ccco3)on2)cc1C	inactive: > 76.9 µM
CCSc1nc2c(c(=O)n1-c1ccc(F)cc1)SCC2	inactive: > 76.9 µM
COc1ccc2[nH]c(=O)c3c(c2c1)OC(C)(C)C=C3	inactive: > 76.9 µM
CCOC(=O)N1CCC(NC(=O)c2ccc(NC(=O)C3CCCO3)cc2)CC1 (configuration not stated)	inactive: > 76.9 µM

Structure (SMILES)	Potency
O=C(NCc1ccco1)c1cc(-c2ccccc2)on1	inactive: > 76.9 µM
COC(=O)COc1ccc(S(=O)(=O)NCCC2=CCCCC2)cc1	inactive: > 76.9 µM
Nc1nc(CSc2nnnn2-c2ccccc2)nc(N2CCCc3ccccc32)n1	inactive: > 76.9 µM
Cc1cc(C(F)(F)F)nc(SCc2ccc(C(=O)O)o2)n1	inactive: > 76.9 µM
O=C(O)c1ccccc1C1=Nc2ccc(O)cc2Oc2cc(O)ccc21	inactive: > 76.9 µM
COCCNC(=O)c1ccccc1NC(=O)COc1ccccc1	inactive: > 76.9 µM
CC(C)NC(=O)CN1CCN(c2ncccn2)CC1	inactive: > 76.9 µM
C=CCN1C(=O)c2ccccc2Sc2ccc(C(=O)N3CCN(C)CC3)cc21	inactive: > 76.9 µM
Cc1cc(C)n2nc(SCn3nnc4ccccc4c3=O)nc2n1	inactive: > 76.9 µM
COCCn1c(SCC(=O)Nc2nnc(C)s2)nnc1-c1ccncc1	inactive: > 76.9 µM
COc1ccc(Cl)cc1-c1nc(-c2ccc(NC(=O)c3ccncc3)cc2)no1	inactive: > 76.9 µM
O=C(COc1ccc(F)cc1)N(CC1=CCS(=O)(=O)C1)c1ccccc1	inactive: > 76.9 µM
COc1ccc(CCNC(=O)CSc2nnc(CNc3ccc(Cl)cc3)o2)cc1OC	inactive: > 76.9 µM
Cc1ccc(C)n1-c1ccc(C(=O)NCC2CCCO2)cc1 (configuration not stated)	inactive: > 76.9 µM
CCOC(=O)c1cnc(=O)[nH]c1C	inactive: > 76.9 µM
CS(=O)(=O)N1CCCC(C(=O)NCc2cccs2)C1 (configuration not stated)	inactive: > 76.9 µM
COc1ccc(-n2nc(C(=O)NCc3ccco3)c3c4ccccc4n(C)c3c2=O)cc1	inactive: > 76.9 µM
O=C(CC(C(=O)N1CCc2ccccc21)n1ccnc1)NCc1cccnc1 (configuration not stated)	inactive: > 76.9 µM
c1ccc2[nH]c(NCCCN3CCOCC3)nc2c1	inactive: > 76.9 µM
COc1cc2c(cc1OC)C(C(=O)Nc1cccc(C)n1)C(c1cccnc1)N(C)C2=O (configuration not stated)	inactive: > 76.9 µM
Cc1cc(C(=O)CC#N)c(C)n1CC(F)(F)F	inactive: > 76.9 µM
O=C(Cc1ccsc1-c1ccccc1)NO	inactive: > 76.9 µM
Cc1cc(C)cc(NC(=O)CN(C)S(=O)(=O)c2cccc3nsnc23)c1	inactive: > 76.9 µM
